Assay results reported in PubChem BioAssay (NCI).
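Following 48 hours of exposure in 96-well plates, responses at five concentrations were used to interpolate endpoints linearly. Here, GI50 denotes the concentration required for 50% inhibition of growth.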 Not every entry of the source has a single result; some have several. This list holds those alone. There may be further records. The tests behind the records often covered other concentration ranges, not given here; a value can be the end of its range.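 TGI marks complete inhibition of growth.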

Assays:
Assay in all cases: NCI tumour cell line growth inhibition, 48 h
786-0 renal = test system: 786-0 renal
HOP-18 NSCLC = test system: HOP-18 NSCLC
SK-MEL-28 melanoma = test system: SK-MEL-28 melanoma
TK-10 renal = test system: TK-10 renal
RPMI-8226 leukemia = test system: RPMI-8226 leukemia
SNB-75 CNS = test system: SNB-75 CNS
DLD-1 colon = test system: DLD-1 colon
NCI-H226 lung = test system: NCI-H226 lung
OVCAR-8 ovarian = test system: OVCAR-8 ovarian
OVCAR-4 ovarian = test system: OVCAR-4 ovarian
A549 NSCLC = test system: A549 NSCLC
HL-60(TB) leukemia = test system: HL-60(TB) leukemia
A498 renal = test system: A498 renal
CAKI-1 renal = test system: CAKI-1 renal
SK-OV-3 ovarian = test system: SK-OV-3 ovarian
LXFL 529 NSCLC = test system: LXFL 529 NSCLC
MALME-3M melanoma = test system: MALME-3M melanoma
U251 CNS = test system: U251 CNS
HCC-2998 colon = test system: HCC-2998 colon
NCI-H522 lung = test system: NCI-H522 lung
NCI-H23 lung = test system: NCI-H23 lung
SR leukemia = test system: SR leukemia
K-562 leukemia = test system: K-562 leukemia
HCT-116 colon = test system: HCT-116 colon
SNB-19 CNS = test system: SNB-19 CNS
HOP-92 NSCLC = test system: HOP-92 NSCLC
SW-620 colon = test system: SW-620 colon
SK-MEL-5 melanoma = test system: SK-MEL-5 melanoma
NCI-H460 lung = test system: NCI-H460 lung
SF-539 CNS = test system: SF-539 CNS
SF-268 CNS = test system: SF-268 CNS
UACC-257 melanoma = test system: UACC-257 melanoma
OVCAR-3 ovarian = test system: OVCAR-3 ovarian
MOLT-4 leukemia = test system: MOLT-4 leukemia
HOP-62 NSCLC = test system: HOP-62 NSCLC
KM20L2 colon = test system: KM20L2 colon
DMS 114 small cell lung = test system: DMS 114 small cell lung
SNB-78 CNS = test system: SNB-78 CNS
SF-295 CNS = test system: SF-295 CNS
EKVX NSCLC = test system: EKVX NSCLC
IGROV1 ovarian = test system: IGROV1 ovarian
SN12C renal = test system: SN12C renal
HCT-15 colon = test system: HCT-15 colon
DMS 273 small cell lung = test system: DMS 273 small cell lung
SK-MEL-2 melanoma = test system: SK-MEL-2 melanoma
M19-MEL melanoma = test system: M19-MEL melanoma
M14 melanoma = test system: M14 melanoma
HT29 colon = test system: HT29 colon
COLO 205 colon = test system: COLO 205 colon
LOX IMVI melanoma = test system: LOX IMVI melanoma
UACC-62 melanoma = test system: UACC-62 melanoma
UO-31 renal = test system: UO-31 renal
OVCAR-5 ovarian = test system: OVCAR-5 ovarian
RXF 393 renal = test system: RXF 393 renal
CCRF-CEM leukemia = test system: CCRF-CEM leukemia
ACHN renal = test system: ACHN renal
KM12 colon = test system: KM12 colon

Question: Which results are given for `COc1cccc2c1C(=O)c1c(O)c3c(c(O)c1C2=O)C[C@@](O)(C(C)=O)C[C@@H]3OC1CC(N(Cc2ccccc2)Cc2ccccc2)C(O)C(C)O1` (some centres not stated)?
Answer: GI50 (786-0 renal): 3.19 µM [mean of 3 tests] and < 10 nM [mean of 4 tests]; TGI (786-0 renal): < 10 nM, 6.87 µM, > 23.2 µM; GI50 (HOP-18 NSCLC): 1.49 µM [mean of 2 tests] and < 10 nM [mean of 3 tests]; TGI (HOP-18 NSCLC): < 10 nM, 4.28 µM, > 50 µM; GI50 (SK-MEL-28 melanoma): < 10 nM and 2.12 µM; TGI (SK-MEL-28 melanoma): < 10 nM, 6.05 µM, > 37.5 µM; GI50 (TK-10 renal): < 10 nM and 3.02 µM; TGI (TK-10 renal): < 10 nM and > 28.1 µM; GI50 (RPMI-8226 leukemia): < 10 nM and 468 nM; TGI (RPMI-8226 leukemia): < 10 nM, 3.46 µM, > 46 µM; GI50 (SNB-75 CNS): 1.55 µM [mean of 3 tests] and < 10 nM [mean of 4 tests]; TGI (SNB-75 CNS): < 10 nM, 9.55 µM, > 37.5 µM; GI50 (DLD-1 colon): 372 nM [mean of 2 tests] and < 10 nM [mean of 3 tests]; TGI (DLD-1 colon): < 10 nM, 4.32 µM, > 28.1 µM; GI50 (NCI-H226 lung): < 10 nM [mean of 2 tests] and 1.05 µM [mean of 4 tests]; TGI (NCI-H226 lung): < 10 nM, 3.89 µM, > 36 µM; GI50 (OVCAR-8 ovarian): < 10 nM and 368 nM; TGI (OVCAR-8 ovarian): < 10 nM, 4.49 µM, > 37.5 µM; GI50 (OVCAR-4 ovarian): < 10 nM and 786 nM; TGI (OVCAR-4 ovarian): < 10 nM, 6.51 µM, > 36 µM; GI50 (A549 NSCLC): < 10 nM and 208 nM; TGI (A549 NSCLC): < 10 nM, 7.56 µM, > 37.5 µM; GI50 (HL-60(TB) leukemia): < 10 nM and 535 nM; TGI (HL-60(TB) leukemia): < 10 nM, 4.39 µM, > 50 µM; GI50 (A498 renal): < 10 nM [mean of 2 tests] and 2.88 µM [mean of 3 tests]; TGI (A498 renal): < 10 nM and > 36 µM; GI50 (CAKI-1 renal): < 10 nM and 121 nM; TGI (CAKI-1 renal): < 10 nM, 859 nM, 44.4 µM; GI50 (SK-OV-3 ovarian): < 10 nM and 8.08 µM; TGI (SK-OV-3 ovarian): < 10 nM and > 36 µM; TGI (LXFL 529 NSCLC): < 10 nM and 6.13 µM; GI50 (MALME-3M melanoma): < 10 nM and 1.22 µM; TGI (MALME-3M melanoma): < 10 nM, 6.73 µM, > 37.5 µM; GI50 (U251 CNS): < 10 nM and 932 nM; TGI (U251 CNS): < 10 nM and > 37.5 µM; GI50 (HCC-2998 colon): < 10 nM [mean of 3 tests] and 1.83 µM [mean of 4 tests]; TGI (HCC-2998 colon): < 10 nM and > 31.6 µM; GI50 (NCI-H522 lung): < 10 nM and 2.16 µM; TGI (NCI-H522 lung): < 10 nM, 7.11 µM, > 36 µM; GI50 (NCI-H23 lung): 884 nM [mean of 2 tests] and < 10 nM [mean of 4 tests]; TGI (NCI-H23 lung): < 10 nM, 5.6 µM, > 37.5 µM; GI50 (SR leukemia): 944 nM [mean of 2 tests] and < 10 nM [mean of 3 tests]; TGI (SR leukemia): < 10 nM, 806 nM, > 14 µM; GI50 (K-562 leukemia): < 10 nM and 371 nM; TGI (K-562 leukemia): < 10 nM, 3.49 µM, > 36 µM; GI50 (HCT-116 colon): < 10 nM and 239 nM; TGI (HCT-116 colon): < 10 nM, 3.95 µM, > 37.5 µM; GI50 (SNB-19 CNS): < 10 nM and 193 nM; TGI (SNB-19 CNS): < 10 nM, 4.98 µM, > 50 µM; GI50 (HOP-92 NSCLC): < 10 nM [mean of 2 tests] and 1.69 µM [mean of 4 tests]; TGI (HOP-92 NSCLC): < 10 nM, 9.78 µM, > 36 µM; TGI (SW-620 colon): < 10 nM, 519 nM, > 50 µM; GI50 (SK-MEL-5 melanoma): < 10 nM [mean of 3 tests] and 1.75 µM [mean of 4 tests]; TGI (SK-MEL-5 melanoma): < 10 nM, 6.41 µM, 30.9 µM; GI50 (NCI-H460 lung): < 10 nM and 113 nM; TGI (NCI-H460 lung): < 10 nM, 7.2 µM, > 37.5 µM; GI50 (SF-539 CNS): < 10 nM and 1.04 µM; TGI (SF-539 CNS): < 10 nM, 7.92 µM, > 37.5 µM; GI50 (SF-268 CNS): < 10 nM and 794 nM; TGI (SF-268 CNS): < 10 nM, 7.58 µM, > 36 µM; GI50 (UACC-257 melanoma): < 10 nM and 2.48 µM; TGI (UACC-257 melanoma): < 10 nM, 8.79 µM, > 34.1 µM; GI50 (OVCAR-3 ovarian): < 10 nM and 1.99 µM; TGI (OVCAR-3 ovarian): < 10 nM, 7.78 µM, > 36 µM; GI50 (MOLT-4 leukemia): < 10 nM, 96 nM [mean of 4 tests] and 2.12 µM [mean of 6 tests]; TGI (MOLT-4 leukemia): < 10 nM, 439 nM [mean of 4 tests] and 23.1 µM [mean of 6 tests]; GI50 (HOP-62 NSCLC): < 10 nM and 3.72 µM; TGI (HOP-62 NSCLC): < 10 nM and > 31.6 µM; GI50 (KM20L2 colon): < 10 nM [mean of 2 tests] and 511 nM [mean of 3 tests]; TGI (KM20L2 colon): < 10 nM, 3.72 µM, > 50 µM; GI50 (DMS 114 small cell lung): 1.14 µM [mean of 3 tests] and < 10 nM [mean of 4 tests]; TGI (DMS 114 small cell lung): < 10 nM, 6.05 µM, > 50 µM; GI50 (SNB-78 CNS): > 50 µM [mean of 3 tests] and < 10 nM [mean of 4 tests]; TGI (SNB-78 CNS): > 50 µM [mean of 3 tests] and < 10 nM [mean of 4 tests]; GI50 (SF-295 CNS): < 10 nM and 1 µM; TGI (SF-295 CNS): < 10 nM, 7.13 µM, 25.9 µM; GI50 (EKVX NSCLC): < 10 nM and 3.16 µM; TGI (EKVX NSCLC): < 10 nM, 8.16 µM, > 50 µM; GI50 (IGROV1 ovarian): < 10 nM and 1.25 µM; TGI (IGROV1 ovarian): < 10 nM, 7.97 µM, > 37.5 µM; GI50 (SN12C renal): < 10 nM and 754 nM; TGI (SN12C renal): < 10 nM, 8.43 µM, > 37.5 µM; GI50 (HCT-15 colon): < 10 nM [mean of 3 tests] and 476 nM [mean of 4 tests]; TGI (HCT-15 colon): < 10 nM, 6.09 µM, > 37.5 µM; GI50 (DMS 273 small cell lung): < 10 nM and 382 nM; TGI (DMS 273 small cell lung): < 10 nM, 6.12 µM, > 36.3 µM; GI50 (SK-MEL-2 melanoma): < 10 nM and 2.02 µM; TGI (SK-MEL-2 melanoma): < 10 nM, 6.07 µM, > 36 µM; GI50 (M19-MEL melanoma): < 10 nM and 1.19 µM; TGI (M19-MEL melanoma): < 10 nM, 3.05 µM, > 50 µM; GI50 (M14 melanoma): < 10 nM and 21.9 µM; TGI (M14 melanoma): < 10 nM, 9.29 µM, > 28.1 µM; GI50 (HT29 colon): < 10 nM and 8.07 µM; TGI (HT29 colon): < 10 nM, 9.15 µM, > 28.1 µM; GI50 (COLO 205 colon): 1.22 µM [mean of 3 tests] and < 10 nM [mean of 4 tests]; TGI (COLO 205 colon): < 10 nM, 8.64 µM, > 34.1 µM; GI50 (LOX IMVI melanoma): < 10 nM and 487 nM; TGI (LOX IMVI melanoma): < 10 nM, 3.05 µM, 30.5 µM; GI50 (UACC-62 melanoma): < 10 nM and 1.15 µM; TGI (UACC-62 melanoma): < 10 nM, 4.44 µM, > 50 µM; GI50 (UO-31 renal): 745 nM [mean of 3 tests] and < 10 nM [mean of 4 tests]; TGI (UO-31 renal): < 10 nM, 6.94 µM, > 36 µM; GI50 (OVCAR-5 ovarian): < 10 nM [mean of 3 tests] and 1.85 µM [mean of 4 tests]; TGI (OVCAR-5 ovarian): < 10 nM, 9.05 µM, > 37.5 µM; GI50 (RXF 393 renal): < 10 nM and 1.27 µM; TGI (RXF 393 renal): < 10 nM, 4.21 µM, > 37.5 µM; GI50 (CCRF-CEM leukemia): 382 nM [mean of 3 tests] and < 10 nM [mean of 4 tests]; TGI (CCRF-CEM leukemia): < 10 nM, 4.05 µM, > 34.1 µM; GI50 (ACHN renal): < 10 nM and 2.71 µM; TGI (ACHN renal): < 10 nM, 3.51 µM, > 28.1 µM; GI50 (KM12 colon): < 10 nM and 793 nM; TGI (KM12 colon): < 10 nM, 6.02 µM, > 36 µM
